Among all 310,000 compounds or so, about 14,000 (4.5%) showed an effect of 50% or more. The effect is printed as a negative number. The list shows a part of the results.
These molecules were tested against human ether-à-go-go-related gene (hERG) potassium channel (human, UniProt Q12809) (assay: primary screen, population patch clamp on CHO cells stably expressing hERG).
human ether-à-go-go-related gene (hERG) potassium channel, sequence (Q12809 whole entry, looked up): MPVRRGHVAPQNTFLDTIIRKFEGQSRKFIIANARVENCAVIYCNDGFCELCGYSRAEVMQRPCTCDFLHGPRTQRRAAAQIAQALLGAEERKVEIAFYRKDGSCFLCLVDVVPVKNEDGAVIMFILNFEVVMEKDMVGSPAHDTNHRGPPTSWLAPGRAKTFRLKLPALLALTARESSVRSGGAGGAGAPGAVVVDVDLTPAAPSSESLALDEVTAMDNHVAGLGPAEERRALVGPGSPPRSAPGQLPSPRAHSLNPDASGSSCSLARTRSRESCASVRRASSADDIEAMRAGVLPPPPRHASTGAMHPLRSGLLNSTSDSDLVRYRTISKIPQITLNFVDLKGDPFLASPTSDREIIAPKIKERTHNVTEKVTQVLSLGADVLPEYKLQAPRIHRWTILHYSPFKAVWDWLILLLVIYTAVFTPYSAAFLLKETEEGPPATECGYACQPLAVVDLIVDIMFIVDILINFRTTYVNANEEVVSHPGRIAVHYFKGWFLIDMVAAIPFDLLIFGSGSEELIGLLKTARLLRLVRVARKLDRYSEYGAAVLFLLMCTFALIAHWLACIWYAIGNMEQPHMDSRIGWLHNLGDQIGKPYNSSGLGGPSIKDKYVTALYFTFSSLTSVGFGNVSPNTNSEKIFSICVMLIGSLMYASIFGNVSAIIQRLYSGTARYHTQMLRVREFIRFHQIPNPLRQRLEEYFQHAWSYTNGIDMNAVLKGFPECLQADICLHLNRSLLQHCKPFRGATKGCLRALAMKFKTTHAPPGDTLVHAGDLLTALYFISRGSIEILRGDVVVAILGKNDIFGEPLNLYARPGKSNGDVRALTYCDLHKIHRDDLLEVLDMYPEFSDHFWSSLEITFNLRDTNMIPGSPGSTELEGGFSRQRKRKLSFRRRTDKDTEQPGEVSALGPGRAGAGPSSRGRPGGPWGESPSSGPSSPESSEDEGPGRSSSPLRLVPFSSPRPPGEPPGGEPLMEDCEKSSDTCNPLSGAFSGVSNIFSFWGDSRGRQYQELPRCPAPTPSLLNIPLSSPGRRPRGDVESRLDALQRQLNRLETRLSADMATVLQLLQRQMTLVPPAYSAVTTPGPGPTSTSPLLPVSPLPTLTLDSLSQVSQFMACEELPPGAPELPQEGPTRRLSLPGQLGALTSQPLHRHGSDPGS
For `COc1ccc(N(C(=O)c2snc(C(N)=O)c2N)C(C(=O)NCc2ccccc2)c2ccc(F)cc2)c(OC)c1` (stereo not drawn), the “hERG current change (%, negative = inhibition) at 10uM” value was -0.146%. In the case of `O=C(c1ccc([N+](=O)[O-])cc1)N1CCc2ccccc2C1`, the “hERG current change (%, negative = inhibition) at 10uM” value is reported as -44.7%. With `CCOc1ccc(/C=N/OCC(=O)Nc2ccc(OCc3ccccc3)cc2)cc1OC` the “hERG current change (%, negative = inhibition) at 10uM” value was 6.71%. With `O=C(CC1Oc2ccccc2NC1=O)NC1CC1` (stereo not drawn) the “hERG current change (%, negative = inhibition) at 10uM” value was 5.67%. `NS(=O)(=O)c1ccc(CCNC(=O)CN2CCN(Cc3cccc4ccccc34)CC2)cc1` was tested, and the “hERG current change (%, negative = inhibition) at 10uM” value was 5.29%. `O=[N+]([O-])c1c(NCCCO)cc(N2CCN(Cc3ccc4c(c3)OCO4)CC2)c2nonc12` was tested, and the “hERG current change (%, negative = inhibition) at 10uM” value was -40.2%. `COc1ccc(NC(=O)C(=O)NCCN2CCN(C(=O)c3ccc(C)cc3)CC2)cc1` was tested, and the “hERG current change (%, negative = inhibition) at 10uM” value was -75.4%. For `CC(=O)Nc1ccc(Cl)c(-c2nc3ncccc3o2)c1`, the “hERG current change (%, negative = inhibition) at 10uM” value was -2.77%. For `Oc1c(CN2CCCCC2)cc(COCc2ccccc2)c2cccnc12`, the “hERG current change (%, negative = inhibition) at 10uM” value was -5.83%. `Cc1ccc(C(=O)NCC(=O)NCCCc2ccccc2)s1` was tested, and the “hERG current change (%, negative = inhibition) at 10uM” value was 1.14%. In the case of `Cc1ccc(/C=N/NC(=O)CN2CCN(S(=O)(=O)c3ccc(Br)cc3)CC2)s1`, the “hERG current change (%, negative = inhibition) at 10uM” value is reported as -58.9%. For `Cn1c(CN2CCOCC2)nnc1SCc1ccccc1`, the “hERG current change (%, negative = inhibition) at 10uM” value was -14.9%. In the case of `COc1ccccc1NC(=S)N(Cc1ccccc1)Cc1ccccn1`, the “hERG current change (%, negative = inhibition) at 10uM” value is reported as -13.4%. With `CC(C)(C)C(=O)/C(=C/c1ccc(Cl)cc1)n1cncn1` the “hERG current change (%, negative = inhibition) at 10uM” value was 5.98%. `N#Cc1ccc(NC(=O)CN2CCN(c3ccccn3)CC2)cc1` was tested, and the “hERG current change (%, negative = inhibition) at 10uM” value was -71.9%. For `COc1ccc(CC(=O)NCC2CCCN(Cc3ccc(OC(F)(F)F)cc3)C2)cc1` (stereo not drawn), the “hERG current change (%, negative = inhibition) at 10uM” value was -63.7%. With `CCOCCCNC(=O)C(NC(=O)c1cnccn1)c1ccc(C)cc1` (stereo not drawn) the “hERG current change (%, negative = inhibition) at 10uM” value was 30.4%. With `CC(CN1CCOCC1)OC(=O)C(c1ccccc1)c1ccccc1` (stereo not drawn) the “hERG current change (%, negative = inhibition) at 10uM” value was -9.65%. In the case of `CCN(CC(=O)Nc1ccccc1C(F)(F)F)C(=O)Cc1sc(C)nc1-c1ccc(F)cc1`, the “hERG current change (%, negative = inhibition) at 10uM” value is reported as -10.2%. `Cc1ccc(-c2cc(C(F)F)n3ncc(C(=O)N4CCN(c5ccccn5)CC4)c3n2)cc1` was tested, and the “hERG current change (%, negative = inhibition) at 10uM” value was -9.65%. In the case of `COC(=O)C1=C(C)N(Cc2ccccc2)C(=O)/C1=C\c1ccco1`, the “hERG current change (%, negative = inhibition) at 10uM” value is reported as 2.06%. `COC(=O)c1sccc1-n1cccc1C(=O)C(=O)N1CCCC1` was tested, and the “hERG current change (%, negative = inhibition) at 10uM” value was 14.3%. `CN(CC(=O)Nc1cccc(F)c1)C(=O)CSc1ccc(Br)cc1` was tested, and the “hERG current change (%, negative = inhibition) at 10uM” value was 0.0875%. `CC(C)NC(=O)c1ccccc1NC(=O)c1ccccc1N(C)S(C)(=O)=O` was tested, and the “hERG current change (%, negative = inhibition) at 10uM” value was 5.13%. With `CCCCc1ccc(NC(=O)C(C)CC)cc1` (stereo not drawn) the “hERG current change (%, negative = inhibition) at 10uM” value was -50.5%. For `O=C(COc1ccccc1F)Nc1c2c(nn1-c1ccccc1)CS(=O)(=O)C2`, the “hERG current change (%, negative = inhibition) at 10uM” value was -35.7%. For `Cc1ccc(CNS(=O)(=O)NCc2cccs2)cc1`, the “hERG current change (%, negative = inhibition) at 10uM” value was 9.08%. In the case of `COc1cccc(C(=O)Nc2cccc(NC(=O)c3cccs3)c2)c1`, the “hERG current change (%, negative = inhibition) at 10uM” value is reported as -12.3%. In the case of `CN(C)c1ccc(C2/C(=C(/O)c3ccc(Br)cc3)C(=O)C(=O)N2C)cc1` (stereo not drawn), the “hERG current change (%, negative = inhibition) at 10uM” value is reported as 10.5%. For `COc1cccc(CN2CCN(C(=O)c3cc(-c4ccccn4)nc4ccc(Cl)cc34)CC2)c1`, the “hERG current change (%, negative = inhibition) at 10uM” value was 17.1%. `Cc1ccc(N2CCN(S(=O)(=O)c3c(C)noc3C)CC2C)cc1` (stereo not drawn) was tested, and the “hERG current change (%, negative = inhibition) at 10uM” value was -9%. In the case of `CCCCn1c(O)c(C(CC)=NCc2ccc(F)cc2)c(=O)[nH]c1=O`, the “hERG current change (%, negative = inhibition) at 10uM” value is reported as -35.4%. In the case of `CC1Nc2ncnc(N3CCN(c4ccccc4)CC3)c2N(Cc2ccc(Br)cc2)C1=O.O=C(O)C(F)(F)F` (stereo not drawn), the “hERG current change (%, negative = inhibition) at 10uM” value is reported as -5.35%. `CCn1c(C)c2c(C)nnc(C)c2c1C` was tested, and the “hERG current change (%, negative = inhibition) at 10uM” value was 11.3%. For `CCCS(=O)(=O)c1nc(S(=O)(=O)c2ccc(C)cc2)c(N2CCN(CCO)CC2)s1`, the “hERG current change (%, negative = inhibition) at 10uM” value was -3.1%. `CC(=O)c1c(C)[nH]c(C(=O)COC(=O)c2ccc(Cl)nc2)c1C` was tested, and the “hERG current change (%, negative = inhibition) at 10uM” value was 16.6%. For `O=C(CCCn1nnnc1CN1CCOCC1)N1CCC(c2ccccc2Cl)C1` (stereo not drawn), the “hERG current change (%, negative = inhibition) at 10uM” value was -1.19%. With `CC(=O)N1CCc2cc(S(=O)(=O)NCCN3CCC(C)CC3)ccc21` the “hERG current change (%, negative = inhibition) at 10uM” value was 10.4%. `CCOC(=O)CNC(=O)CSc1nc2cccnc2n1C` was tested, and the “hERG current change (%, negative = inhibition) at 10uM” value was 7.54%. With `O=C(O/N=C1\CCS(=O)(=O)c2sccc21)c1ccc(F)cc1` the “hERG current change (%, negative = inhibition) at 10uM” value was 45%. In the case of `COc1ccc(N2C(=S)N(C(=O)c3ccccc3)C(=Nc3ccccc3)C2=Nc2ccccc2)cc1`, the “hERG current change (%, negative = inhibition) at 10uM” value is reported as -3.16%. For `Cc1ccc2nc(-c3ccccc3O)c(Nc3ccc4c(c3)OCCO4)n2c1`, the “hERG current change (%, negative = inhibition) at 10uM” value was 9.98%. With `CC(=O)Nc1ccc(NC(=O)CCCc2c[nH]c3ccccc23)cc1` the “hERG current change (%, negative = inhibition) at 10uM” value was 22.6%. In the case of `CCC(=O)Nc1nnc(CCc2ccccc2)s1`, the “hERG current change (%, negative = inhibition) at 10uM” value is reported as 2.02%. For `O=C(NNC(=S)NC(=O)c1ccccc1[N+](=O)[O-])c1ccccc1[N+](=O)[O-]`, the “hERG current change (%, negative = inhibition) at 10uM” value was 15.1%. With `O=C(CCCN1C(=O)/C(=C/c2ccc3c(c2)OCO3)SC1=S)Nc1ccc(C(=O)O)cc1` the “hERG current change (%, negative = inhibition) at 10uM” value was -1.02%. With `CC1=NCCN1S(=O)(=O)c1cccc([N+](=O)[O-])c1` the “hERG current change (%, negative = inhibition) at 10uM” value was 14.6%. For `CCOC(=O)N1CCN(C(=O)C2CCN(S(=O)(=O)c3ccc(OCC)cc3)CC2)CC1`, the “hERG current change (%, negative = inhibition) at 10uM” value was -21.7%. `C=CCn1c(COc2ccccc2-c2ccccc2)nnc1SCC(=O)NC(=O)NCc1ccco1` was tested, and the “hERG current change (%, negative = inhibition) at 10uM” value was 22.2%. With `O=C(CSc1nc(-c2ccccc2)c(-c2ccccc2)[nH]1)NCc1ccco1` the “hERG current change (%, negative = inhibition) at 10uM” value was -1.63%. With `O=C(C1CC1)N1CCc2cc(Br)cc(S(=O)(=O)NCc3ccccn3)c21` the “hERG current change (%, negative = inhibition) at 10uM” value was 11.1%. For `COC(=O)c1ccc(CSc2nc3ccccc3[nH]2)o1`, the “hERG current change (%, negative = inhibition) at 10uM” value was 5.04%. `COc1ccc(OCc2cc(C(=O)N(C)Cc3cc(C4CC4)n[nH]3)no2)c(Cl)c1` was tested, and the “hERG current change (%, negative = inhibition) at 10uM” value was -33%. With `COCC(C)NS(=O)(=O)c1ccc(NC(=O)C(Cc2ccccc2)NC(N)=O)cc1` (stereo not drawn) the “hERG current change (%, negative = inhibition) at 10uM” value was 8.59%.

Source: article PMC4336329 (PLoS ONE, 2015)
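Also: peak tail current of the secondary pulse compared with the same well before compound.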
